# Experimental data taken from the supplement of paper PMC12217912.
# The list shows a part of the results. Sequences were assembled here from the parent chain. Inactive controls read about 0.05.
# B1: TEV protease; numbered along this chain (parent)
# chain: MGESLFKGPRDYNPISSSICHLTNESDGHTTSLYGIGFGPFIITNKHLFRRNNGTLVVQSLHGVFKVKDTTTLQQHLVDGRDMIIIRMPKDFPPFPQKLKFREPQREERICLVTTNFQTKSMSSMVSDTSCTFPSGDGIFWKHWIQTKDGQCGSPLVSTRDGFIVGIHSASNFTNTNNYFTSVPKNFMELLTNQEAQQWVSGWRLNADSVLWGGHKVFMVKPEEPFQPVKEATQL
# Variants of: B1
# Experiment: raw area under fraction-flipped curve 0-4 h after induction (AUC4h, not background-subtracted), DNA-recorder readout of cleavage of the substrate (dimensionless); higher = more cleavage of the substrate by the protease variant
# Conditions: temperature: 34 °C; time window: 0-4 h after rhamnose induction
# Description: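 In vivo DNA recorder in E. coli TOP10(DE3) ΔrhaA at 34 °C. Each TEVp single-site mutant (parent TEVp 0) is paired with a single-site variant of the 7-mer TEVs (canonical ENLYFQ|S). The substrate sits between flexible linkers in a Bxb1-sfGFP-TEVs-SsrA fusion, so cleavage stabilises Bxb1 and speeds flipping of a recombination array, read by NGS. The value is the raw area under the fraction-flipped curve over 0-4 h after rhamnose induction (AUC4h), with ≥20 reads per time point. It is not background-subtracted; inactive controls average about 0.047.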
# 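Also: Bxb1 expression induced with 0.2% (w/v) L-rhamnose at OD600 near 0.5, cultures sampled hourly, flipped fraction per protease–substrate barcode pair counted by paired-end Illumina sequencing.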
Variant,area with substrate ENLAFQS,area with substrate ENLCFQS,area with substrate ENLDFQS,area with substrate ENLEFQS,area with substrate ENLFFQS,area with substrate ENLGFQS,area with substrate ENLHFQS,area with substrate ENLIFQS,area with substrate ENLKFQS,area with substrate ENLNFQS,area with substrate ENLPFQS,area with substrate ENLQFQS,area with substrate ENLRFQS,area with substrate ENLSFQS,area with substrate ENLVFQS,area with substrate ENLWFQS,area with substrate ENLLFQS,area with substrate ENLTFQS,area with substrate ENLMFQS
MGESLFKGPQDYNPISSSICHLTNESDGHTTSLYGIGFGPFIITNKHLFRRNNGTLVVQSLHGVFKVKDTTTLQQHLVDGRDMIIIRMPKDFPPFPQKLKFREPQREERICLVTTNFQTKSMSSMVSDTSCTFPSGDGIFWKHWIQTKDGQCGSPLVSTRDGFIVGIHSASNFTNTNNYFTSVPKNFMELLTNQEAQQWVSGWRLNADSVLWGGHKVFMVKPEEPFQPVKEATQL [R10Q],0.0779,0.082,0.0472,0.0728,0.0883,0.0523,0.0837,0.0802,0.0759,0.0688,0.0597,0.0726,0.0759,0.0642,0.0906,0.0712,–,–,–
MGESLFKGPEDYNPISSSICHLTNESDGHTTSLYGIGFGPFIITNKHLFRRNNGTLVVQSLHGVFKVKDTTTLQQHLVDGRDMIIIRMPKDFPPFPQKLKFREPQREERICLVTTNFQTKSMSSMVSDTSCTFPSGDGIFWKHWIQTKDGQCGSPLVSTRDGFIVGIHSASNFTNTNNYFTSVPKNFMELLTNQEAQQWVSGWRLNADSVLWGGHKVFMVKPEEPFQPVKEATQL [R10E],0.0911,0.0552,0.063,0.0746,–,–,0.0633,0.0634,0.0714,0.0638,0.0699,0.0671,0.0791,0.0556,–,–,0.0663,0.0698,–
MDESLFKGPRDYNPISSSICHLTNESDGHTTSLYGIGFGPFIITNKHLFRRNNGTLVVQSLHGVFKVKDTTTLQQHLVDGRDMIIIRMPKDFPPFPQKLKFREPQREERICLVTTNFQTKSMSSMVSDTSCTFPSGDGIFWKHWIQTKDGQCGSPLVSTRDGFIVGIHSASNFTNTNNYFTSVPKNFMELLTNQEAQQWVSGWRLNADSVLWGGHKVFMVKPEEPFQPVKEATQL [G2D],0.0769,0.0741,0.0578,0.0567,0.0736,–,0.0673,–,0.0787,0.0476,0.057,0.0735,0.0751,0.0808,–,0.0916,0.0719,0.0589,–
MGESLFKGPRDYNPISSSSCHLTNESDGHTTSLYGIGFGPFIITNKHLFRRNNGTLVVQSLHGVFKVKDTTTLQQHLVDGRDMIIIRMPKDFPPFPQKLKFREPQREERICLVTTNFQTKSMSSMVSDTSCTFPSGDGIFWKHWIQTKDGQCGSPLVSTRDGFIVGIHSASNFTNTNNYFTSVPKNFMELLTNQEAQQWVSGWRLNADSVLWGGHKVFMVKPEEPFQPVKEATQL [I19S],0.0672,–,0.0636,–,–,–,–,–,0.0584,0.054,–,–,–,0.0616,–,0.0625,–,–,–
MGESLFKGPRDYNPISSSNCHLTNESDGHTTSLYGIGFGPFIITNKHLFRRNNGTLVVQSLHGVFKVKDTTTLQQHLVDGRDMIIIRMPKDFPPFPQKLKFREPQREERICLVTTNFQTKSMSSMVSDTSCTFPSGDGIFWKHWIQTKDGQCGSPLVSTRDGFIVGIHSASNFTNTNNYFTSVPKNFMELLTNQEAQQWVSGWRLNADSVLWGGHKVFMVKPEEPFQPVKEATQL [I19N],0.0893,0.0705,0.0456,0.055,0.0723,–,0.0731,–,0.0606,0.0538,0.0495,0.0543,0.0466,0.0395,0.0663,0.0527,0.0539,–,0.0349
MGESLFKGPRDYNPISSSMCHLTNESDGHTTSLYGIGFGPFIITNKHLFRRNNGTLVVQSLHGVFKVKDTTTLQQHLVDGRDMIIIRMPKDFPPFPQKLKFREPQREERICLVTTNFQTKSMSSMVSDTSCTFPSGDGIFWKHWIQTKDGQCGSPLVSTRDGFIVGIHSASNFTNTNNYFTSVPKNFMELLTNQEAQQWVSGWRLNADSVLWGGHKVFMVKPEEPFQPVKEATQL [I19M],0.0738,0.0588,0.0629,0.0362,0.0818,0.072,0.0774,0.0773,0.0816,0.0641,0.0663,0.106,–,0.0699,0.0525,0.0554,0.0793,–,0.0685
MGESLFKGPRDYNNISSSICHLTNESDGHTTSLYGIGFGPFIITNKHLFRRNNGTLVVQSLHGVFKVKDTTTLQQHLVDGRDMIIIRMPKDFPPFPQKLKFREPQREERICLVTTNFQTKSMSSMVSDTSCTFPSGDGIFWKHWIQTKDGQCGSPLVSTRDGFIVGIHSASNFTNTNNYFTSVPKNFMELLTNQEAQQWVSGWRLNADSVLWGGHKVFMVKPEEPFQPVKEATQL [P14N],0.0693,0.0809,0.0686,–,0.0893,–,0.0579,0.117,0.0667,0.0673,–,0.0551,0.0761,0.0491,–,0.0493,–,–,0.0582
MGESLFKGPRDYNGISSSICHLTNESDGHTTSLYGIGFGPFIITNKHLFRRNNGTLVVQSLHGVFKVKDTTTLQQHLVDGRDMIIIRMPKDFPPFPQKLKFREPQREERICLVTTNFQTKSMSSMVSDTSCTFPSGDGIFWKHWIQTKDGQCGSPLVSTRDGFIVGIHSASNFTNTNNYFTSVPKNFMELLTNQEAQQWVSGWRLNADSVLWGGHKVFMVKPEEPFQPVKEATQL [P14G],0.0646,–,0.0539,0.0679,0.09,0.0765,0.0442,0.0877,0.0534,0.0688,–,0.075,0.0749,0.0671,0.0758,0.0886,0.0816,–,–
MGESLFKGPRDYNDISSSICHLTNESDGHTTSLYGIGFGPFIITNKHLFRRNNGTLVVQSLHGVFKVKDTTTLQQHLVDGRDMIIIRMPKDFPPFPQKLKFREPQREERICLVTTNFQTKSMSSMVSDTSCTFPSGDGIFWKHWIQTKDGQCGSPLVSTRDGFIVGIHSASNFTNTNNYFTSVPKNFMELLTNQEAQQWVSGWRLNADSVLWGGHKVFMVKPEEPFQPVKEATQL [P14D],0.0672,0.0697,0.0615,0.0654,0.0837,0.058,0.0751,0.0785,0.0777,0.0575,0.062,0.108,–,0.0657,–,0.0915,0.0919,–,0.0914
